In the supplement of paper PMC11417369:
± gives the standard deviation of the averaged measurements. Some of the results follow.

test system: PfAP2-I AP2 domain 3 (GST-tagged); test: gcPBM binding intensity (ln(normalized median fluorescence intensity)); higher = stronger DNA binding
Outline: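 Using an Agilent 4 × 180k array, primer-extended double-stranded 36-bp intergenic genomic probes and negative controls were exposed for 1 h to GST-fused P. falciparum DNA-binding domains expressed in E. coli. Binding was carried out in 1× PBS with 1% milk, 0.2 mg/ml BSA, 0.5% salmon testes DNA and 0.03% Triton X-100, and protein was detected with Alexa488 anti-GST antibody and a 488 nm scan. Binding intensity is the highest Masliner-normalised natural-log median intensity across replicate spots of either probe orientation.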

Row | Sequence | gcPBM binding intensity (ln)
1 | ACATATGTATAATAATGTACGCATTAAATATAATTA [XGTACX_site7851] | 7.75 ± 0.37
2 | AAAAAAAAATAAAATAAAATAAAATAAAATAATATA [CACACA_negctrl_site1798] | 7.32 ± 0.57
3 | ATAATATATATTAATACACACACACCGATATATATA [CACACA_site9261] | 8.27 ± 0.68
4 | GACCAATACTTTAAAAGTACAAACCTTATTTTATTT [XGTACX_site2718] | 7.93 ± 0.57
5 | AGGAGGATATTACACAGTACCCAGGAAATCTACGGA [XGTACX_site4878] | 7.92 ± 0.46
6 | TATTTTATAAATACAAGTAAAATTAAATATATAATA [XGTACX_negctrl_site221] | 7.42 ± 0.41
7 | TTGTACTACAATCCTTTATTTATTTAAACCTGTATG [CACACA_negctrl_site428] | 7.7 ± 0.59
8 | TATATAAATAGACACACACACACATATAAATAAATA [CACACA_site7855] | 7.77 ± 0.37
9 | TTTCAATGCATAAAAGTGCGCAATAATTTAAAGATC | 9.73 ± 0.071
10 | AATGTGATAATATACACACACGCATATATATATATA [CACACA_site323] | 9.41 ± 0.63
11 | CTGTGTAATTTAAATTGTACGTTTGAAAAAAATAAA [XGTACX_site5667] | 7.88 ± 0.5
12 | AAAACACTTATGGATTGTACAATAAAAATTATATTA [XGTACX_site7042] | 7.88 ± 0.24
13 | TTTTAAAGAAAAAAATGTACAAAATTTTTATTTTAA [XGTACX_site1496] | 7.31 ± 0.47
14 | ACCCACGTAAATTAAGCATGCCTTCCGTTATATTTA [TGCATGCA_site365] | 8.06 ± 0.48
15 | TTTTACTAAATATATACACACATTATGCATATATAT [CACACA_site3287] | 8.39 ± 0.67
16 | TATGTGAATATAATCACACACAATACGGAAAGAGAC [CACACA_site7311] | 8.84 ± 0.11
17 | TTTTTTTTTTATAAGGCACACATGAATATTTATACA [CACACA_site1316] | 10.3 ± 0.35
18 | TATATGTAATATTATACATGCATACATAATATATAT [TGCATGCA_site558] | 8.13 ± 0.77
19 | AAAAGGAATTATAGGAAATAAATATATACAAATATA [TGCATGCA_negctrl_site528] | 7.38 ± 0.61
20 | CGATTTTTTAAGTTTGTGCACTTAAAAACTATAACA | 10.9 ± 0.54
21 | CCATTTGATAATAATGCACACCACATATATTTATAT [CACACA_site9002] | 11 ± 0.4
22 | TATTTCAAAATAAAATAAAATATATATATATGTATA [XGTACX_negctrl_site416] | 7.51 ± 0.36
23 | TATATGTCAATATCTACACACATATAGGTAATTATT [CACACA_site7475] | 7.59 ± 0.42

Row | Sequence | gcPBM binding intensity (ln)
24 | TATACTATACAACACATACACACAAAAAAAAAAAAA [CACACA_site537] | 7.99 ± 0.42
25 | TAAATCATGGGATAAGCATGCGCGCACATGTTTGTT [TGCATGCA_site768] | 7.88 ± 0.9
26 | TTTATTTATTAAGAATGTACATGTATTTGTTAAATA [XGTACX_site4465] | 7.78 ± 0.18
27 | GTATTATCTGCTTTTTGTACACATATATTTAAAAAA [XGTACX_site7603] | 8.62 ± 0.3
28 | TTCTGTGTGTATTGGCGTACAATTATTTTGCCTACA [XGTACX_site205] | 8.25 ± 0.76
29 | ACATTCACAAAATTTTGTACACATATATATATATAT [XGTACX_site3518] | 9.19 ± 0.13
30 | ATTATTACTTTTTGAGTGCACATACACACAGACATA | 10.5 ± 0.22
31 | ATTTTTCATTCTGGACATGTTACCATTATATATATG [CACACA_negctrl_site61] | 8.15 ± 0.72
32 | ATAACTATAATAATCATACACACCAAAGAGAATATT [CACACA_site6970] | 7.88 ± 0.52
33 | TTTTGTTTAAAAAAAAAAAACAAAAAAAAGCAATTA [CACACA_negctrl_site314] | 7.42 ± 0.59
34 | ATTAAAAAAATATACGCACACAAAATGTAATAACAA [CACACA_site2439] | 8.36 ± 0.45
35 | TAATTTGTTATGTATTGTACAAATAATATATGATAT [XGTACX_site1985] | 7.86 ± 0.35
36 | TTACATAATTTATGTACACACGCAAATACTTATAAT [CACACA_site4331] | 8.1 ± 0.26
37 | TTTATTTATAGGTATACACACTTTAATTAAAAGTTG [CACACA_site7232] | 7.79 ± 0.61
38 | CCTAAAGTGTAAAATTCACACACATATATATATATA [CACACA_site8385] | 9.22 ± 0.37
39 | TTTATTTTTGAAGTTGCACACACAAAAATAAAAAGT [CACACA_site8030] | 8.52 ± 0.18
40 | ATGAAACACTCCATAGTGCAAAATATATATTATATT | 10.27 ± 0.057
41 | CTATTTTTCCTGAAATGTACAAGAATTTTATTTGAT [XGTACX_site8867] | 7.57 ± 0.42
42 | TGATAATATTATATATGTACATATATGTATATTTTT [XGTACX_site7193] | 7.57 ± 0.3
43 | AATTCAATTGAGCAAAATTCAAATAAATTAAAAAGA [XGTACX_negctrl_site71] | 7.36 ± 0.72
44 | CAAAAATAATTTAGGTGTACAAATTTGACAAAAAAA [XGTACX_site188] | 8.04 ± 0.57
45 | ATATGGGTGAACATATGTACATATATATATTGATAA [XGTACX_site8438] | 7.87 ± 0.55
